# Among all 410,000 compounds or so, about 310 (0.076%) were called active. This list was built around the results that the source calls inconclusive (neither active nor inactive); the mix of calls is not that of the screen. Calls come from the whole dose curve; as a rule, active = well fitted curve in the direction sought with a large enough effect; inconclusive = small, poorly fitted or top-dose-only effect; inactive = flat fitted curve, though single readings scatter. A potency beside an inconclusive call is a rough fit, not a confirmed value.
# Target: DNA dC->dU-editing enzyme APOBEC-3G (Homo sapiens) (UniProt Q9HC16)
# Assay: qHTS for Inhibitors of Vif-A3G Interactions: qHTS; note: nearly all actives have a fitted effect of over 60% in size;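 for activity, negative = active: hits raise eYFP signal because A3G escapes Vif-driven loss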
# Conditions: HeLa A3G-eYFP + Vif (tagged APOBEC3G with the HIV-1 protein that degrades it), YFP fluorescence, overnight; series mostly up to 46.1 µM; activity, negative = active: at the top concentration
# Outline: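 Read-out is eYFP fluorescence (Ex 488/Em 500-530) from Vif-expressing HeLa A3G-eYFP cells; more signal means A3G escaped Vif-mediated degradation. Cells plated overnight, compound pinned in, incubated overnight at 37 deg C.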
# % is set by controls: 0 for no effect and ±100 for the full control effect; potency is the fitted concentration of half-maximal effect; tags give direction and shape of the fitted curve.
# UniProt Q9HC16, sequence (Q9HC16 whole entry, looked up): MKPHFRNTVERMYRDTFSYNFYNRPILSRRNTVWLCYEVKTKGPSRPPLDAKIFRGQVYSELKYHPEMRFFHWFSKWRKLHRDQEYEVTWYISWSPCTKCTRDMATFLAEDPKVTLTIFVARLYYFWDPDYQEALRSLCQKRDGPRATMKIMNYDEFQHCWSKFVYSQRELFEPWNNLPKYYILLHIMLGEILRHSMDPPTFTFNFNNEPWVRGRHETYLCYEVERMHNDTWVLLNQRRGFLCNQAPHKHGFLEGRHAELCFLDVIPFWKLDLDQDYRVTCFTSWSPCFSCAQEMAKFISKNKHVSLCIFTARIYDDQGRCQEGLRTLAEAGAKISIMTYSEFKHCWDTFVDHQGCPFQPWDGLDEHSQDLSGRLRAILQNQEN
Compound,"activity, negative = active",Potency
O=C(Nc1cccc(C(F)(F)F)c1)c1ccc(Cn2cc(Br)cn2)o1,inactive: 0.23%,
COc1ccccc1N1CCN(C(=O)c2cn(Cc3ccccc3)nc2-c2cccnc2)CC1,inactive: -14.7%,
CCOCCC(=O)Nc1ccc2c(c1)c(=O)n(C)n2-c1ccc2ccccc2c1,,"inconclusive: 0.631 µM [inhibitor, full curve, poor fit]"
CC1CCCCC12NC(=O)N(CC(=O)Nc1ccc(Cl)c(S(=O)(=O)N3CCOCC3)c1)C2=O (centres undefined),inactive: -2.72%,
Cc1cccc([C@H]2[C@@H]3C=CCC[C@@H]3C(=O)N2Cc2ccccc2)c1,inactive: -2%,
Cc1cc(-c2ccccc2)nc2c(Br)c(C(=O)O)nn12,inactive: 1.47%,
O=C(Nc1cc(C(F)(F)F)ccc1Cl)C(Sc1n[nH]c(=O)[nH]c1=O)c1ccccc1 (centres undefined),inactive: 0.0866%,
O=C(Nc1ccc2nn(-c3ccccc3)nc2c1)c1ccc(-c2cccc(Cl)c2)o1,inactive: -10%,
CN(C)c1ccc([C@@H]2[C@@H]([N+](=O)[O-])[C@H]3C=Cc4ccccc4N3[C@H]2C(=O)c2ccc(Cl)cc2)cc1,,"inconclusive: 15.8 µM [inhibitor, single point]"
Cc1ccc(C(=O)NNCC(=O)Nc2ccc(Cl)cc2F)cc1,inactive: 0.85%,
C=C(C)COc1ccc(-c2n[nH]c(C)c2-c2ccc(OC)c(OC)c2)c(O)c1,,"inconclusive: 2.82 µM [inhibitor, partial curve, poor fit]"
Cc1cccc(CS(=O)(=O)c2ncc(Cl)c(C(=O)NCc3ccccc3)n2)c1,,"inconclusive: 11.2 µM [inhibitor, partial curve]"
COc1ccc(NS(=O)(=O)c2ccc3[nH]c4c(c3c2)CCCCCC4)cc1,,"inconclusive: 20 µM [inhibitor, single point]"
CC(=O)Nc1ccc(S(=O)(=O)NNC(=O)c2cc3c4ccccc4n(C)c3s2)cc1,,"inconclusive: 25.1 µM [inhibitor, single point]"
Cn1c(=O)cc(SCC(=O)NCc2ccc(F)cc2)c2ccccc21,,"inconclusive: 11.2 µM [inhibitor, partial curve]"
CC(C)N=C(NS(=O)(=O)c1ccccc1)C(Cl)(Cl)Cl,,"inconclusive: 3.55 µM [inhibitor, full curve, poor fit]"
Cc1ccc(C)c(NC(=O)c2cc(=O)c3cc(C)cc(C)c3o2)c1,inactive: 2.36%,
CCCC(=O)N1CCN(c2ccc(NC(=O)c3ccc([N+](=O)[O-])o3)cc2)CC1,,"inconclusive: 3.55 µM [inhibitor, single point]"
CC(C)(C)C1C/C(=C/c2ccccn2)C(=O)/C(=C/c2ccccn2)C1 (centres undefined),,"inconclusive: 1.41 µM [inhibitor, full curve, poor fit]"
S=C1NC(c2cccs2)=CC(c2ccc(Br)cc2)N1 (centres undefined),inactive: -4.35%,
CC1(C(=O)Nc2ccc3c(c2)OCO3)Cc2c(-c3cccc(C(F)(F)F)c3)ccnc2O1 (centres undefined),,"inconclusive: 2.82 µM [inhibitor, partial curve, poor fit]"
CCOC(=O)CN1C(=O)N[C@@H](c2cccc(C(F)(F)F)c2)C(C(C)=O)=C1C,inactive: 2.13%,
COc1ccc(N2C(=O)NC3CC2(C)Oc2ccc(Cl)cc23)cc1OC (centres undefined),,"inconclusive: 17.8 µM [inhibitor, single point]"

Compound,"activity, negative = active",Potency
COc1ccc(/C=c2\s/c(=C/C(=O)c3ccc(C)cc3)[nH]c2=O)c(OC)c1,,"inconclusive: 25.1 µM [inhibitor, single point]"
CC(C)c1ccc2nc3sc(C(=O)N4CCc5ccccc5C4)c(N)c3cc2c1,,"inconclusive: 35.5 µM [inhibitor, single point]"
CC1=C([N+](=O)[O-])C(c2ccccc2)C2=C(N1)c1ccccc1C2=O (centres undefined),,"inconclusive: 0.562 µM [inhibitor, full curve, poor fit]"
COc1ccc2c(C)cc(SCC(=O)N(C)C3CCS(=O)(=O)C3)nc2c1 (centres undefined),,"inconclusive: 14.1 µM [inhibitor, partial curve, poor fit]"
O=C(Cn1ncc2c3ccccc3n(Cc3ccccc3F)c2c1=O)NCCCN1CCCC1=O,inactive: -2.27%,
COC(=O)N1C(=O)[C@@](c2ccccc2)(C2CCCC2)N1C(=O)OC,,"inconclusive: 25.1 µM [inhibitor, single point]"
Cc1ccc2nc(-c3ccncc3)cc(C(=O)Nc3ccc4c(c3)OCCO4)c2c1,,"inconclusive: 11.2 µM [inhibitor, partial curve, poor fit]"
CCOC(=O)c1[nH]c(C)c(C(=O)OCC(=O)NC(C)c2ccc(F)cc2)c1C (centres undefined),,"inconclusive: 2 µM [inhibitor, full curve, poor fit]"
CCCCCC(=O)N1C[C@H](O)[C@@H](n2cc(-c3ccc(F)cc3)nn2)C[C@@H]1c1ccc(Cl)cc1,inactive: 2.67%,
Cc1ccc(S(=O)(=O)N2CCCC(C(=O)O)C2)s1 (centres undefined),inactive: 1.36%,
Cc1ccc(C(c2sc3nc(-c4ccco4)nn3c2O)N2CCN(Cc3ccccc3)CC2)cc1 (centres undefined),inactive: 1.19%,
Nc1nc2ccccc2n1S(=O)(=O)c1ccc([N+](=O)[O-])cc1,,"inconclusive: 15.8 µM [inhibitor, single point]"
O=C1C(C2=C(O)c3ccccc3C2=O)=Nc2ccccc21,,"inconclusive: 25.1 µM [inhibitor, single point]"
CC1=Cc2ccccc2C(C#N)N1C(=O)c1ccccc1 (centres undefined),,"inconclusive: 35.5 µM [inhibitor, single point]"
CCN(CC)S(=O)(=O)c1ccc(C(=O)NCCc2cc3c(OC)ccc(OC)c3[nH]c2=O)cc1,,"inconclusive: 35.5 µM [inhibitor, single point]"
COc1ccc(Br)c(C(=O)Nc2nc3ccccc3[nH]2)c1,,"inconclusive: 5.62 µM [inhibitor, single point]"
Cc1cc2ncn(/N=C/c3ccc([N+](=O)[O-])o3)c2cc1C,,"inconclusive: 3.98 µM [inhibitor, full curve]"
COc1ccc(Cl)cc1NC(=O)NCc1ccco1,inactive: -5.38%,
COc1ccc(Br)cc1/C=N/NC(=O)c1ccc(COc2ccc3c(c2)CCC3)o1,inactive: -0.0423%,
N#CC1=C(SCC(=O)c2cc3ccccc3oc2=O)NC(=O)C(C#N)C12CCCC2 (centres undefined),,"inconclusive: 12.6 µM [inhibitor, single point]"
COc1cc(Nc2nc3ccccc3n3nnnc23)cc(OC)c1OC,,"inconclusive: 11.2 µM [inhibitor, partial curve, poor fit]"
O=c1oc2ccccc2nc1/C=C(\O)c1ccccc1,inactive: -8.45%,
COc1ccc(-c2cc(NC=O)c3ncc(-c4ccc(C(C)=O)cc4)n3c2)cc1OC,,"inconclusive: 12.6 µM [inhibitor, partial curve]"

Compound,"activity, negative = active",Potency
CCCCN(C=O)c1c(CC)nc2c(OCC3CCCCC3)cccn12,,"inconclusive: 35.5 µM [inhibitor, single point]"
COc1cc(C(Nc2ccccn2)c2ccc3ccc(C)nc3c2O)cc(OC)c1O (centres undefined),,"inconclusive: 35.5 µM [inhibitor, single point]"
Clc1ccc(OCCCN2CCc3ccccc3C2)c(Br)c1,inactive: -1.89%,
CCC1CC=CC2C1C(=O)N(Cc1ccccc1)C2c1cccc([N+](=O)[O-])c1 (centres undefined),,"inconclusive: 25.1 µM [inhibitor, single point]"
CCOC(=O)c1[nH]c(C)c(C(=O)Nc2ccc(C)cc2C)c1C,,"inconclusive: 3.16 µM [inhibitor, partial curve, poor fit]"
Cc1ccc([N+](=O)[O-])cc1S(=O)(=O)Nc1cccc(S(=O)(=O)Nc2ccccc2C(=O)O)c1,inactive: -0.609%,
O=C(/C=C1\SC(=O)NC1=O)Nc1ccc(F)cc1,,"inconclusive: 31.6 µM [inhibitor, single point]"
Cc1ccc(/C=C2\SC(N3CCN(C(c4ccccc4)c4ccccc4)CC3)=NC2=O)o1,inactive: -5.33%,
COc1cc(/C=N\Nc2ccc([N+](=O)[O-])cc2)ccc1OCC(=O)Nc1ccc(C)c(C)c1,inactive: -1.38%,
O=S(=O)(Nc1cccc2ccccc12)c1ccc2ccccc2c1,inactive: -17.7%,
CCc1cccc(CC)c1NC(=O)Cn1c(=O)c(-c2cc(C)ccc2NC(C)=O)nc2ccccc21,inactive: 2.05%,
O=C(Nc1cccc(-c2nc3ncccc3o2)c1)c1sc2ccccc2c1Cl,inactive: -2.03%,
Cc1ccc(C(=O)NC2CCCc3ccccc32)cc1[N+](=O)[O-] (centres undefined),,"inconclusive: 20 µM [inhibitor, partial curve, poor fit]"
CC(OC(=O)c1cc2sccc2n1C)C(=O)NCC1CCCO1 (centres undefined),inactive: 2.47%,
COc1ccc(NC(=O)CSC2=Nc3ccccc3C3=NC(CC(=O)NCc4ccco4)C(=O)N23)cc1 (centres undefined),inactive: -3.04%,
Cn1c(C(c2cc3ccccc3n2C)c2cc3ccccc3n2C)cc2ccccc21,,"inconclusive: 22.4 µM [inhibitor, single point]"
Cc1nc2c(C)cccc2cc1C(=O)N/N=C/c1cccc([N+](=O)[O-])c1,,"inconclusive: 7.08 µM [inhibitor, partial curve, poor fit]"
CN1CCN(c2ccc([N+](=O)[O-])cc2C(=O)c2ccc(Cl)cc2)CC1,,"inconclusive: 2.82 µM [inhibitor, full curve, poor fit]"
COc1ccc(S(=O)(=O)N(CCc2ccccc2)CC(=O)NC(C)C)cc1,inactive: 2.21%,
CC1CCCCN1CCNC(=O)c1ccc2c(=O)n(Cc3ccc(Cl)cc3)c(=S)[nH]c2c1 (centres undefined),inactive: 0.682%,
CCOc1c(Cl)cc(/C=N/NC(N)=S)cc1OC,inactive: 1.49%,
COc1ccc(/C=C2\COc3ccccc3C2=O)c(OC)c1,,"inconclusive: 10 µM [inhibitor, partial curve]"
O=C(COc1ccccc1/C=C1\SC(=S)NC1=O)Nc1ccc(F)cc1,inactive: -6.16%,

# From PubChem BioAssay AID602310 (National Center for Advancing Translational Sciences (NCATS), 2012)
